Reference: patent US5763404A, “Methods for using LHRH antagonists with low histamine release” (priority 1995, dated 1998)
Not every detail of the peptide structures is certain; ends, links or a residue may be inferred. Starred links: 1 amine or outer side, 2 acyl side, 3 side chain; linkers in the order of their positions; H or OH if unused. Non-standard residues stand in square brackets, D forms with d. Residues, ends and D or L forms follow the SMILES beside them. *: point of attachment. X5 = O=C([C@H](CCCCNC1CCCC1)N[*:1])[*:2]; dPhe(4-Cl) = N[C@H](Cc1ccc(Cl)cc1)C(=O)O; Pyrimidin2yl(4,6-Me2) = Cc1cc(C)nc(*)n1; d2Nal = N[C@H](Cc1ccc2ccccc2c1)C(=O)O; Lys(iPr) = CC(C)NCCCC[C@H](N)C(=O)O; Orn(iPr) = CC(C)NCCC[C@H](N)C(=O)O; d3Pal = N[C@H](Cc1cccnc1)C(=O)O; Isonicotinoyl = O=C(c1ccncc1)*; Nicotinoyl = O=C(c1cccnc1)*; Picolinoyl = O=C(c1ccccn1)*; Orn = NCCC[C@H](N)C(=O)O; Bz = O=C(c1ccccc1)*

Tests used:
4-day cycling rats = assay: antiovulatory activity (AOA) in rats, single sc injection; type: in vivo, rat; conditions: for AOA %/μg 1.0: 1.0 μg sc in corn oil; for AOA %/μg 2.0: 2.0 μg sc in corn oil; for AOA %/μg 0.5: 0.5 μg sc in corn oil
rat mast cells = assay: in vitro histamine release test; type: cell-based; conditions: rat mast cells, ± SEM
Method: The antiovulatory activity, AOA, in rats was determined as described by Humphries et al. (12). Antiovulation assays were performed by counting, on estrus, the number of ova shed by 4-day cycling rats after a single sc injection of the LH-RH analogue in corn oil was administered between 12 and 12:30 p.m. on […]. The control rats received 0.3 mL of the vehicle. The wheal test was performed by intradermally injecting 10 ug of peptide in 100 ul of saline into anaesthesized rats, measuring the ideally circular wheal response and calculating the area. The in vitro histamine release test was done as described by Karten et al. (4). A suspension of rat mast cells was added to increasing concentrations of peptide and the mixture was incubated for a few minutes followed by centrifugation to collect the histamine in the supernatant. A PIPES (piperazine-N,N'-bis[2-ethanesulfonic acid]) medium buffered at pH 7.4 containing NaCl 119 mM, KCl 5 mM, PIPES 25 mM, NaOH 40 mM, glucose 5.6 mM, CaCl2 1 mM, and 0.1% bovine serum albumin was used. This was designated as PIPES AC. Peptides were dissolved in double distilled H2 O at a concentration of 2 mg/ml and stored at -20° C. They were thawed just prior to testing, diluted in PIPES AC and prewarmed for five minutes at 37° C. Peptides studied were stable to heating at 56° C. for two hours, and to freezing and thawing.
Peritoneal cells were collected from male Sprague-Dawley rats weighing 200 to 250 gm and purchased from Harlan (Madison, Wis.). After euthanasia by CO2, the peritoneal cavity was washed with 50 ml PIPES AC medium containing 20 units of heparin. Following centrifugation at 200×g for eight minutes at 4° C., cells were washed again and finally resuspended to a concentration of 8 to 24×10^5 total leukocytes/ml in PIPES AC. This suspension contained approximately 5-10% mast cells. Washed cells were used immediately after collection and were prewarmed for five minutes at 37° C. prior to pipetting 0.25 ml aliquots into 12×75 mm polystyrene tubes containing 0.25 ml of diluted peptide. Mixtures were incubated for 15 minutes at 37° C. and the reaction stopped by centrifugation at 400×g for 15 minutes at 4° C. The cell supernatants were assayed for histamine content by the automated fluorometric assay procedure. See, Siraganian, R. P., "An automated continuous flow system for the extraction and fluorometric analysis of histamine." Anal. Biochem. 57:383 (1974); and Siraganian, R. P. and Hook, W. A., "Histamine release and assay methods for the study of human allergy," In Manual of Clinical Immunology, 3rd ed., N. R. Rose, H. Friedman, and J. L. Fahey (Eds.), Amer. Soc. for Microbiology, Washington (1986) p. 808.

## CC(=O)N[C@H](Cc1ccc2ccccc2c1)C(=O)N[C@H](Cc1ccc(Cl)cc1)C(=O)N[C@H](Cc1cccnc1)C(=O)N[C@@H](CO)C(=O)N[C@@H](Cc1ccc(O)cc1)C(=O)N[C@H](CCCCNC(=O)c1cccnc1)C(=O)N[C@@H](CC(C)C)C(=O)N[C@@H](CCCCNC(=O)c1cccnc1)C(=O)N1CCC[C@H]1C(=O)N[C@H](C)C(N)=O [compound 24540] (Ac-[d2Nal][dPhe(4-Cl)][d3Pal]SY[dK](Nicotinoyl)LK(Nicotinoyl)P[dA]-NH2)
4-day cycling rats
  AOA %/μg 1.0: 0%
Rat mast cells
  In Vitro Histamine Release ED50: 300 µg/mL

## CC(=O)N[C@H](Cc1ccc2ccccc2c1)C(=O)N[C@H](Cc1ccc(Cl)cc1)C(=O)N[C@H](Cc1cccnc1)C(=O)N[C@@H](CO)C(=O)N[C@@H](CCCCNC(C)C)C(=O)N[C@H](CCCCNC(=O)c1cccnc1)C(=O)N[C@@H](CC(C)C)C(=O)N[C@@H](CCCCNC(C)C)C(=O)N1CCC[C@H]1C(=O)N[C@H](C)C(N)=O [compound 24543] (Ac-[d2Nal][dPhe(4-Cl)][d3Pal]S[Lys(iPr)][dK](Nicotinoyl)L[Lys(iPr)]P[dA]-NH2)
4-day cycling rats
  AOA %/μg 1.0: 89%
Rat mast cells
  In Vitro Histamine Release ED50: 20.3 µg/mL

## CC(=O)N[C@H](Cc1ccc2ccccc2c1)C(=O)N[C@H](Cc1ccc(Cl)cc1)C(=O)N[C@H](Cc1cccnc1)C(=O)N[C@@H](CO)C(=O)N[C@@H](Cc1ccc(O)cc1)C(=O)N[C@H](CCCCNC(=O)c1cccnc1)C(=O)N[C@@H](CC(C)C)C(=O)N[C@@H](CCCN)C(=O)N1CCC[C@H]1C(=O)N[C@H](C)C(N)=O [compound 24748] (Ac-[d2Nal][dPhe(4-Cl)][d3Pal]SY[dK](Nicotinoyl)L[Orn]P[dA]-NH2)
4-day cycling rats
  AOA %/μg 2.0: 67%
Rat mast cells
  In Vitro Histamine Release ED50: 19.3 µg/mL

## CC(=O)N[C@H](Cc1ccc2ccccc2c1)C(=O)N[C@H](Cc1ccc(Cl)cc1)C(=O)N[C@H](Cc1cccnc1)C(=O)N[C@@H](CO)C(=O)N[C@@H](Cc1ccc(O)cc1)C(=O)N[C@H](CCCNC(=N)N)C(=O)N[C@@H](CC(C)C)C(=O)N[C@@H](CCCCNC(=O)c1cccnc1)C(=O)N1CCC[C@H]1C(=O)N[C@H](C)C(N)=O [compound 24749] (Ac-[d2Nal][dPhe(4-Cl)][d3Pal]SY[dR]LK(Nicotinoyl)P[dA]-NH2)
4-day cycling rats
  AOA %/μg 2.0: 88%
Rat mast cells
  In Vitro Histamine Release ED50: 14.2 µg/mL

## CC(=O)N[C@H](Cc1ccc2ccccc2c1)C(=O)N[C@H](Cc1ccc(Cl)cc1)C(=O)N[C@H](Cc1cccnc1)C(=O)N[C@@H](CO)C(=O)N[C@@H](Cc1ccc(O)cc1)C(=O)N[C@H](CCCCNC(=O)c1cccnc1)C(=O)N[C@@H](CC(C)C)C(=O)N[C@@H](CCCNC(C)C)C(=O)N1CCC[C@H]1C(=O)N[C@H](C)C(N)=O [compound 24756] (Ac-[d2Nal][dPhe(4-Cl)][d3Pal]SY[dK](Nicotinoyl)L[Orn(iPr)]P[dA]-NH2)
4-day cycling rats
  AOA %/μg 0.5: 22%
  AOA %/μg 1.0: 71%
Rat mast cells
  In Vitro Histamine Release ED50: > 300 µg/mL

## CC(=O)N[C@H](Cc1ccc2ccccc2c1)C(=O)N[C@H](Cc1ccc(Cl)cc1)C(=O)N[C@H](Cc1cccnc1)C(=O)N[C@@H](CO)C(=O)N[C@@H](CCCCNC(=O)c1cccnc1)C(=O)N[C@H](CCCCNC(=O)c1cccnc1)C(=O)N[C@@H](CC(C)C)C(=O)N[C@@H](CCCNC(C)C)C(=O)N1CCC[C@H]1C(=O)N[C@H](C)C(N)=O [compound 24933] (Ac-[d2Nal][dPhe(4-Cl)][d3Pal]SK(Nicotinoyl)[dK](Nicotinoyl)L[Orn(iPr)]P[dA]-NH2)
4-day cycling rats
  AOA %/μg 0.5: 88%
  AOA %/μg 1.0: 100%
Rat mast cells
  In Vitro Histamine Release ED50: 206 ± 64 µg/mL

## CC(=O)N[C@H](Cc1ccc2ccccc2c1)C(=O)N[C@H](Cc1ccc(Cl)cc1)C(=O)N[C@H](Cc1cccnc1)C(=O)N[C@@H](CO)C(=O)N[C@@H](CCCCNC(=O)c1cccnc1)C(=O)N[C@@H](CCCCNC(=O)c1cccnc1)C(=O)N[C@@H](CC(C)C)C(=O)N[C@@H](CCCCNC(C)C)C(=O)N1CCC[C@H]1C(=O)N[C@H](C)C(N)=O [compound 24934] (Ac-[d2Nal][dPhe(4-Cl)][d3Pal]SK(Nicotinoyl)K(Nicotinoyl)L[Lys(iPr)]P[dA]-NH2)
4-day cycling rats; 10.0 μg sc in corn oil
  AOA %/μg 10.0: 8%
Rat mast cells
  In Vitro Histamine Release ED50: > 300 µg/mL

## CC(=O)N[C@H](Cc1ccc2ccccc2c1)C(=O)N[C@H](Cc1ccc(Cl)cc1)C(=O)N[C@H](Cc1cccnc1)C(=O)N[C@@H](CO)C(=O)N[C@@H](CCCCNC(=O)c1cccnc1)C(=O)N[C@H](CCCCNC(=O)c1cccnc1)C(=O)N[C@@H](CC(C)C)C(=O)N[C@@H](CCCCNC1CCCC1)C(=O)N1CCC[C@H]1C(=O)N[C@H](C)C(N)=O [compound 25078] (Ac-[d2Nal][dPhe(4-Cl)][d3Pal]SK(Nicotinoyl)[dK](Nicotinoyl)L[X5]P[dA]-NH2)
4-day cycling rats
  AOA %/μg 1.0: 64%
Rat mast cells
  In Vitro Histamine Release ED50: 171 ± 49 µg/mL

## CC(=O)N[C@H](Cc1ccc2ccccc2c1)C(=O)N[C@H](Cc1ccc(Cl)cc1)C(=O)N[C@H](Cc1cccnc1)C(=O)N[C@@H](CO)C(=O)N[C@@H](CCCCNC(=O)c1cccnc1)C(=O)N[C@H](CCCCNC(=O)c1cccnc1)C(=O)N[C@@H](CC(C)C)C(=O)N[C@@H](CCCNc1nc(C)cc(C)n1)C(=O)N1CCC[C@H]1C(=O)N[C@H](C)C(N)=O [compound 25143] (Ac-[d2Nal][dPhe(4-Cl)][d3Pal]SK(Nicotinoyl)[dK](Nicotinoyl)L[Orn](Pyrimidin2yl(4,6-Me2))P[dA]-NH2)
4-day cycling rats
  AOA %/μg 1.0: 18%
Rat mast cells
  In Vitro Histamine Release ED50: < 300 µg/mL

## CC[C@H](C)[C@H](NC(=O)[C@H](CO)NC(=O)[C@@H](Cc1cccnc1)NC(=O)[C@@H](Cc1ccc(Cl)cc1)NC(=O)[C@@H](Cc1ccc2ccccc2c1)NC(C)=O)C(=O)N[C@H](CCCCNC(=O)c1cccnc1)C(=O)N[C@@H](CC(C)C)C(=O)N[C@@H](CCCCNC(C)C)C(=O)N1CCC[C@H]1C(=O)N[C@H](C)C(N)=O [compound 25144] (Ac-[d2Nal][dPhe(4-Cl)][d3Pal]SI[dK](Nicotinoyl)L[Lys(iPr)]P[dA]-NH2)
4-day cycling rats
  AOA %/μg 1.0: 82%
Rat mast cells
  In Vitro Histamine Release ED50: 324 ± 20 µg/mL

## CC[C@H](C)[C@H](NC(=O)[C@H](CO)NC(=O)[C@@H](Cc1cccnc1)NC(=O)[C@@H](Cc1ccc(Cl)cc1)NC(=O)[C@@H](Cc1ccc2ccccc2c1)NC(C)=O)C(=O)N[C@H](CCCCNC(=O)c1cccnc1)C(=O)N[C@@H](CC(C)C)C(=O)N[C@@H](CCCNC(C)C)C(=O)N1CCC[C@H]1C(=O)N[C@H](C)C(N)=O [compound 25145] (Ac-[d2Nal][dPhe(4-Cl)][d3Pal]SI[dK](Nicotinoyl)L[Orn(iPr)]P[dA]-NH2)
4-day cycling rats
  AOA %/μg 1.0: 55%
Rat mast cells
  In Vitro Histamine Release ED50: 151 ± 75 µg/mL

## CC(=O)N[C@H](Cc1ccc2ccccc2c1)C(=O)N[C@H](Cc1ccc(Cl)cc1)C(=O)N[C@H](Cc1cccnc1)C(=O)N[C@@H](CO)C(=O)N[C@@H](CCCCNC(=O)c1ccncc1)C(=O)N[C@H](CCCCNC(=O)c1ccncc1)C(=O)N[C@@H](CC(C)C)C(=O)N[C@@H](CCCCNC(C)C)C(=O)N1CCC[C@H]1C(=O)N[C@H](C)C(N)=O [compound 25146] (Ac-[d2Nal][dPhe(4-Cl)][d3Pal]SK(Isonicotinoyl)[dK](Isonicotinoyl)L[Lys(iPr)]P[dA]-NH2)
4-day cycling rats
  AOA %/μg 0.5: 63%
  AOA %/μg 1.0: 91%
Rat mast cells
  In Vitro Histamine Release ED50: 15 ± 8.2 µg/mL

## CC(=O)N[C@H](Cc1ccc2ccccc2c1)C(=O)N[C@H](Cc1ccc(Cl)cc1)C(=O)N[C@H](Cc1cccnc1)C(=O)N[C@@H](CO)C(=O)N[C@@H](CCCCNC(=O)c1ccccn1)C(=O)N[C@H](CCCCNC(=O)c1ccccn1)C(=O)N[C@@H](CC(C)C)C(=O)N[C@@H](CCCCNC(C)C)C(=O)N1CCC[C@H]1C(=O)N[C@H](C)C(N)=O [compound 25147] (Ac-[d2Nal][dPhe(4-Cl)][d3Pal]SK(Picolinoyl)[dK](Picolinoyl)L[Lys(iPr)]P[dA]-NH2)
4-day cycling rats
  AOA %/μg 1.0: 90%
Rat mast cells
  In Vitro Histamine Release ED50: 93 ± 28 µg/mL

## CC(=O)N[C@H](Cc1ccc2ccccc2c1)C(=O)N[C@H](Cc1ccc(Cl)cc1)C(=O)N[C@H](Cc1cccnc1)C(=O)N[C@@H](CO)C(=O)N[C@@H](CCCCNC(=O)c1cccnc1)C(=O)N[C@H](CCCCNC(=O)c1ccccc1)C(=O)N[C@@H](CC(C)C)C(=O)N[C@@H](CCCCNC(C)C)C(=O)N1CCC[C@H]1C(=O)N[C@H](C)C(N)=O [compound 25332] (Ac-[d2Nal][dPhe(4-Cl)][d3Pal]SK(Nicotinoyl)[dK](Bz)L[Lys(iPr)]P[dA]-NH2)
4-day cycling rats
  AOA %/μg 1.0: 50%
Rat mast cells
  In Vitro Histamine Release ED50: > 300 µg/mL
